In the RNAGym collection of RNA variant scans (doi:10.7554/elife.90254):
The source gives no read counts; variants with many changes may rest on few reads.

B1: LINE1-full (parent)
chain: UACGUAGGUGGUUUUCCCCUGAUAGUGCUAAGGGGGCCUGGAAGUUUGGACUGGGCAGAGCUCAACACAGCGUGGCAAAGUGGCUGUGGCUAGACUGCCUCUCUGGAUUCCUCGUCACUCAGCAGGGCAUCUCUGAGAGAAAUGCC

Variants of: B1
Test: self-cleavage, relative activity (ratio to wild type); higher = more cleavage; in vitro, sequencing; the parent is a self-cleaving ribozyme
Variant U109A U132A A138C has a self-cleavage of 0.
With C103A U104A U130C the self-cleavage was 1.65.
G97A A107G A141G showed a self-cleavage of 0.09.
Work on A94G G106A U132C yielded a self-cleavage of 0.2.
Work on A94U U115A A141U yielded a self-cleavage of 0.38.
With U112C U130C U143A the self-cleavage was 0.
Variant U112A A124U C146A has a self-cleavage of 1.48.
U96C U112C G126U C145U showed a self-cleavage of 0.08.
U115C A117G A141G gave a self-cleavage of 1.62.
With U104C U119C A142G the self-cleavage was 2.71.
Variant A117U U119A U130A has a self-cleavage of 1.15.
In the case of C103U U108C A129G, the self-cleavage is reported as 1.78.
Variant U132A A140G U143C has a self-cleavage of 1.37.
With U102C A107G U112C the self-cleavage was 0.
C99G U104C U108C gave a self-cleavage of 1.47.
A117U A129G A136G A142G gave a self-cleavage of 1.41.
With C118U U119C A141G the self-cleavage was 2.08.
With U115C A129U A141G the self-cleavage was 1.97.
With C128U G137A A141U the self-cleavage was 1.66.
For A107G U132A A140U, the self-cleavage was 1.72.
A94U U96A A138G gave a self-cleavage of 0.11.
With A107U A121G A140G the self-cleavage was 1.79.
For C98U U132C A140G, the self-cleavage was 0.59.
For C120A U132C G139U, the self-cleavage was 1.58.
U134A A136G A141C gave a self-cleavage of 2.63.
A94G U108A U115A showed a self-cleavage of 0.17.
Variant U102A U134C A136U A140G has a self-cleavage of 2.53.
A129G U130C U134A showed a self-cleavage of 2.7.
Variant C95U U102C U119C A129U has a self-cleavage of 0.32.
A117G U119C A142G gave a self-cleavage of 1.84.
Work on A94G U134G A140G yielded a self-cleavage of 0.17.
For U100C U102C U108C C123U, the self-cleavage was 2.12.
In the case of C111A U130C U132C, the self-cleavage is reported as 1.44.
For U96A G125U U132C A140U, the self-cleavage was 0.04.
Variant U102A U115C A142G has a self-cleavage of 1.2.
In the case of A94G U102C A142G, the self-cleavage is reported as 0.18.
With U100A A107U A129G the self-cleavage was 1.21.
Variant U115C A124G A138G has a self-cleavage of 2.57.
Work on U119A A124G C131G yielded a self-cleavage of 1.08.
In the case of U96A U115C A141G A142G, the self-cleavage is reported as 0.06.
In the case of U108C U119A U134A, the self-cleavage is reported as 0.5.
With A129G C131U C146U the self-cleavage was 2.35.
Variant G106U C123U A129G has a self-cleavage of 0.
In the case of A94G U109A G114A, the self-cleavage is reported as 0.15.
For U96C U100C A138G A142U, the self-cleavage was 0.85.
Variant U104C A138U A141G has a self-cleavage of 2.64.
Work on U104A A121U A124U U143G yielded a self-cleavage of 1.9.
C110U A129U U130A gave a self-cleavage of 1.49.
In the case of C116U U134A A140G A142G, the self-cleavage is reported as 0.28.
Variant C111U U119C A141G has a self-cleavage of 1.9.
In the case of U108A U109C U112C U134A, the self-cleavage is reported as 1.97.
With U96C A129G A141U the self-cleavage was 0.26.
A124U U134A A142G showed a self-cleavage of 1.13.
In the case of A117G A141G A142G, the self-cleavage is reported as 0.
Work on C120A A121G G125U yielded a self-cleavage of 1.54.
A129U A140C A141G showed a self-cleavage of 1.46.
U96A U102G A107U U132A showed a self-cleavage of 0.2.
In the case of U102C U104C G125A, the self-cleavage is reported as 1.81.
Work on A129G A140U U143A yielded a self-cleavage of 0.22.
For U102C G114A C131G, the self-cleavage was 1.56.
In the case of U100C U104A U143C, the self-cleavage is reported as 1.53.
For U104A A129G A141G, the self-cleavage was 1.7.
Work on U100C U102C U115A U132C yielded a self-cleavage of 2.
Work on U109C U115A A142G yielded a self-cleavage of 0.
With U112A U130G A136G the self-cleavage was 0.57.
Variant G127A A129U U130A has a self-cleavage of 1.47.
In the case of U112C U132C A140G, the self-cleavage is reported as 0.92.
Variant U100C C116U U130C A141G has a self-cleavage of 1.2.
U96C U134A A136G showed a self-cleavage of 0.1.
Variant U102C U112A A117G has a self-cleavage of 0.
Work on A124G C128U U143C yielded a self-cleavage of 0.05.
With G114A A124G A129G A136G the self-cleavage was 1.54.
With U96C U130C A140G A142G the self-cleavage was 1.23.
Work on C113U A117C A140G A142G yielded a self-cleavage of 1.78.
In the case of U112C U143C C145U, the self-cleavage is reported as 1.22.
With U100C C116U A140G the self-cleavage was 1.95.
With U96C U102A U109C the self-cleavage was 0.14.
U104C A140G A142G showed a self-cleavage of 1.15.
In the case of U100A U134C A142U, the self-cleavage is reported as 0.59.
U108C U115G A140U showed a self-cleavage of 0.
Variant G97A G126U A129G A136G has a self-cleavage of 0.35.
U109C U115G U134C gave a self-cleavage of 0.77.
With U112C A129U A140G the self-cleavage was 0.97.
In the case of A124G A129G U132C, the self-cleavage is reported as 1.1.
For A107G U112A C123U, the self-cleavage was 1.16.
Work on A107U U119C A141U yielded a self-cleavage of 2.33.
With A121G U143C G144A the self-cleavage was 1.33.
Variant C103A C128A A141C has a self-cleavage of 1.08.
For U104A C110U A121G, the self-cleavage was 1.11.
A107G U115A A129U gave a self-cleavage of 1.69.
With C98G C111U C120U the self-cleavage was 0.11.
In the case of U112A U115C U132A G135U, the self-cleavage is reported as 1.34.
U108C U119C U132C gave a self-cleavage of 2.76.
In the case of A94U U100A A138G, the self-cleavage is reported as 0.23.
In the case of U130A A136G A138G A141G, the self-cleavage is reported as 0.
Variant U104A U119A A136G has a self-cleavage of 1.48.
In the case of A138G A140G A142G, the self-cleavage is reported as 0.2.
In the case of U119A A129C A141G, the self-cleavage is reported as 1.46.
With U109C A129U A136G the self-cleavage was 1.8.
In the case of U109C A138U A141G A142G, the self-cleavage is reported as 1.78.
C98G C101U A129U gave a self-cleavage of 0.23.
Variant A117G U119A G126A A142G has a self-cleavage of 0.69.
In the case of A94U U100C U104A, the self-cleavage is reported as 0.39.
Variant U96A U112A A129G has a self-cleavage of 0.06.
Variant U102C U115A A121C has a self-cleavage of 1.53.
U104A U119C A138G gave a self-cleavage of 2.45.
Variant C123G G127C U132C A138G has a self-cleavage of 1.23.
For A94U U115C A129U, the self-cleavage was 0.56.
U104C U112A U134C A140G gave a self-cleavage of 1.41.
U119A A121G U132A showed a self-cleavage of 2.04.
U96A U108C U109A A140G gave a self-cleavage of 0.12.
U102C G126U A142G showed a self-cleavage of 1.86.
For U96C A138G G139A, the self-cleavage was 0.09.
Work on A94G C111A A124G C145U yielded a self-cleavage of 0.08.
For U96A U132C A136U, the self-cleavage was 0.37.
With U112C A121G A136G the self-cleavage was 1.7.
Work on A94U A129G A141G yielded a self-cleavage of 0.27.
U108C A124U U143A gave a self-cleavage of 1.18.
